Measured values taken from PubChem BioAssay AID1345082 (National Center for Advancing Translational Sciences (NCATS), 2018).
Where “and” joins values, the source holds several entries; their conditions need not be identical. Equal values may be shown once. About 4,000 (4.3%) of roughly 94,000 compounds were called active. This list was built around the results that the source calls inconclusive (neither active nor inactive); the mix of calls is not that of the screen. Calls come from the whole dose curve; as a rule, active = well fitted inhibition curve with a large enough effect; inconclusive = small, poorly fitted or top-dose-only effect; inactive = no such curve, though single readings can be large or run the other way. Potencies beside an inconclusive call are fits to weak or partial responses and may not hold up.

Assay: Cytotoxic Profiling in NIH 3T3 Cell Line of Diverse Libraries Using Quantitative High-Throughput Screening; note: nearly all actives have a fitted effect of over 55% in size
Settings: NIH 3T3 viability, CellTiter-Glo ATP luminescence, 48-72 h; activity change, negative = cytotoxicity: at 96.7 µM (top of the series) unless noted; series mostly up to 96.7 µM
Procedure, shortened: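 Luminescent ATP readout (CellTiter-Glo, 10 min RT) after 48 or 72 hr compound exposure of NIH 3T3 cells seeded at 400 cells/well in 1536-well format; quantitative HTS.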
% is set by controls: 0 for no effect and ±100 for the full control effect; potency is the fitted concentration of half-maximal effect; tags give direction and shape of the fitted curve.

Row | SMILES | activity change, negative = cytotoxicity | Potency | outcome
1 | CCNC(=O)NC1(Cc2cc(-c3ccc(OC)cc3)on2)COC1 | inactive: 2.75% [at 174 µM] |  | 
2 | COc1cccc(-c2cn3cc(C(=O)NCCCc4ccccc4)nc3s2)c1 |  | active: 35.5 µM | 
3 | CCC(=O)N1CCc2c(sc3ncnc(NCCc4ccccc4)c23)C1 |  | inconclusive: 50.1 µM [inhibitor, partial curve, poor fit] | 
4 | O=C1NCCCCCCN(C(=O)Cc2ccccc2)[C@@H]2C[C@@H](c3nc(-c4cccnc4)no3)C[C@H]12 |  | inconclusive: 56.2 µM [inhibitor, partial curve, poor fit] | 
5 | CCOc1ccc2c(n1)CCN(C(=O)COc1cccc(C)c1)C2 |  | inconclusive: 44.7 µM [inhibitor, partial curve, poor fit] | 
6 | O=C(c1ccc(F)cc1)N1CCC(C(=O)N2CCC(c3nc4ncccc4[nH]3)CC2)CC1 | inactive: -14.2% |  | 
7 | COc1ccc(C(=O)Nc2nc3c(s2)C[C@@H]2[C@](C)(CO)[C@H](O)CC[C@@]2(C)[C@@H]3CC(=O)NCc2ccco2)cc1 |  | inconclusive: 89.1 µM [inhibitor, single point] | 
8 | O=C(NC1CCN(c2nc3ncccc3o2)CC1)C1CC1 |  | inconclusive: 112 µM [inhibitor, partial curve] | 
9 | COc1ccccc1-c1nc(C(=O)NCc2cccnc2)n2ccncc12 |  | inconclusive: 39.8 µM [inhibitor, partial curve, poor fit] and inconclusive: 44.7 µM [inhibitor, partial curve, poor fit] | 
10 | CCCCCNc1ncnc2c1CN(c1ccccc1F)C(=O)CN2C |  | inconclusive: 44.7 µM [inhibitor, partial curve, poor fit] | 
11 | CC(C)n1ccnc1C1CCCN(S(=O)(=O)c2ccccc2Cl)C1 (stereo not given) |  | inconclusive: 50.1 µM [inhibitor, partial curve, poor fit] | 
12 | CCOc1ccccc1C1NC(=O)N(CC(=O)Nc2cccc(C)c2)C2=C1C(=O)OC2 (stereo not given) | inactive: -27.6% |  | 
13 | COc1ccc(Cn2c(C3CCN(C(=O)COc4cccc(C)c4)CC3)n[nH]c2=O)cc1 |  | inconclusive: 50.1 µM [inhibitor, partial curve, poor fit] | 
14 | O=C1C(c2ccccc2)CC2(CCN(c3cnccn3)CC2)CN1C1CC1 (stereo not given) |  | inconclusive: 100 µM [inhibitor, single point] | 
15 | CCN1C(=O)CN(C(=O)c2ccncc2)CC12CCOCC2 | inactive: -19.1% |  | 
16 | O=C(C[C@@H]1CCNC[C@@H]1Cc1cc(CSc2ccccc2)on1)NCc1cccs1 |  | inconclusive: 79.4 µM [inhibitor, partial curve, poor fit] | 
17 | Cc1ccccc1OCC1CN(Cc2c[nH]c3ccccc23)C(=O)c2c(ccnc2-c2ccc(OCC(=O)O)cc2)O1 (stereo not given) |  | inconclusive: 70.8 µM [inhibitor, single point] | 
18 | CCOc1ccc(C(=O)NCCn2cccc2-c2nc(-c3ccccc3)no2)cc1OCC | inactive: -10.9% |  | 
19 | COC(=O)[C@@H]1Cc2c([nH]c3ccccc23)[C@H]2C[C@H](NCCO)C[C@@H](c3ccccc3)N21 |  | active: 44.7 µM | 
20 | COc1ccc(-c2ccc(C(=O)N3CCN([S+](=O)([O-])c4cccc(C(F)(F)F)c4)CC3)cc2)nn1 |  | inconclusive: 56.2 µM [inhibitor, partial curve, poor fit] | 

Row | SMILES | activity change, negative = cytotoxicity | Potency | outcome
21 | COCC(=O)NC1CCN(c2ccc3nnc(-c4ccccc4)n3n2)C1 (stereo not given) |  | inconclusive: 112 µM [inhibitor, single point] | 
22 | Cc1cc(C)cc(C(=O)N2CCC(c3n[nH]c(=O)n3-c3ccccc3)CC2)c1 | inactive: -42.2% |  | 
23 | COc1ccc([C@H]2C[C@@H](O)[C@@H](O)[C@@H]2NCc2cccc(OC)c2)cc1 |  | inconclusive: 112 µM [inhibitor, single point] | 
24 | CCn1cc(CN2CCC3(CC2)CC(C(=O)N2CCOCC2)N(C)C3)cn1 (stereo not given) | inactive: -7.5% |  | 
25 | O=C(Cc1ccccc1Cl)N1CCCN(c2cc(-c3ccccc3)[nH]n2)CC1 |  | inconclusive: 50.1 µM [inhibitor, partial curve, poor fit] | 
26 | COCC(=O)NC1CCC12CCN(C(=O)NCc1ccc(C)cc1)CC2 (stereo not given) | inactive: -25.5% |  | 
27 | CNC(c1ccccc1)c1ccccc1 |  |  | inactive [at 138 µM]
28 | FC(F)(F)c1ccc(Oc2ccc(CN3CCCC3)cc2Cl)nc1 |  | inconclusive: 79.4 µM [inhibitor, partial curve, poor fit] | 
29 | C[S+](=O)([O-])Nc1cccc(Nc2cnc3ccc(-c4ccccc4)nn23)c1 |  | inconclusive: 31.6 µM [inhibitor, full curve] | 
30 | O=C(COc1ccccc1)Nc1ccc2c(N3CCOCC3)ncnc2c1 |  | inconclusive: 28.2 µM [inhibitor, full curve] | 
31 | COc1ccccc1CN1CC(c2noc(CCC(=O)c3ccc(C)cc3)n2)CC1=O (stereo not given) |  | inconclusive: 44.7 µM [inhibitor, partial curve, poor fit] | 
32 | O=C(O)COc1ccc(-c2nccc3c2C(=O)N(Cc2c[nH]c4ccccc24)CC(CNC(=O)c2cccc(Cl)c2)O3)cc1 (stereo not given) |  | active: 31.6 µM | 
33 | O=C1COCC2(CN1)CN(c1ccc(Oc3ccccc3)cc1)C2 |  | inconclusive: 44.7 µM [inhibitor, partial curve, poor fit] | 
34 | O=C(c1ccc2cccc(F)c2n1)N1CCOc2ccc(Cl)cc2C1 |  | inconclusive: 28.2 µM [inhibitor, partial curve] | 
35 | O=C(NCc1cccc(Cl)c1)C1CCCN(Cc2cccc(-c3ccsc3)c2)C1 (stereo not given) |  | active: 39.8 µM | 
36 | CC(=O)N1CCN(C[C@@H]2C=C(C)[C@H](Cc3nnc(-c4cccnc4)o3)C[C@H]2C(C)C)CC1 |  | inconclusive: 89.1 µM [inhibitor, single point] | 
37 | O=C(NCc1ccccc1F)C1CCCN1C(=O)c1cccc(-c2ccccn2)c1 (stereo not given) | inactive: -1.18% |  | 
38 | O=C(c1cc(F)cc(F)c1)N1CCC(Cc2nc(-c3ccccc3)no2)CC1 |  | inconclusive: 28.2 µM [inhibitor, partial curve] | 
39 | Cc1noc(C)c1-c1cc2cc(C(C)C)oc2c(NCc2cccnc2)n1 |  | inconclusive: 35.5 µM [inhibitor, partial curve, poor fit] | 
40 | Cc1ncccc1Oc1ncnc(N2CCC3(CC(=O)NC3=O)C2)c1C (stereo not given) |  | inconclusive: 56.2 µM [inhibitor, partial curve, poor fit] | 
